Results: PubChem BioAssay AID686979 (National Center for Advancing Translational Sciences (NCATS), 2013)
Several values for one entry are separate records, joined by “and”; a condition that tells them apart may be missing. Identical values can stand only once. Hit rate of the full screen: of about 420,000 compounds, about 50,000 (12%) were called active. This list was built around the results that the source calls inconclusive (neither active nor inactive); the mix of calls is not that of the screen. Calls come from the whole dose curve; as a rule, active = well fitted inhibition curve with a large enough effect; inconclusive = small, poorly fitted or top-dose-only effect; inactive = flat fitted curve, though single readings scatter. Where the call is inconclusive, the potency comes from a doubtful curve fit.

Assay: qHTS for Inhibitors of human tyrosyl-DNA phosphodiesterase 1 (TDP1): qHTS in cells in presence of CPT; note: nearly all actives have a fitted effect of over 55% in size
Conditions: chicken DT40 Tdp1-/-;hTDP1 cells + 20 nM CPT, ATP luminescence, 48 h; series mostly up to 46.2 µM
In short: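 Chicken DT40 Tdp1-/- cells complemented with human TDP1, 400 cells/well, exposed to compounds plus 20 nM camptothecin for at least 48 h at 37 C; viability read as ATP content by CellTiter-Glo luminescence.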
Potency is the fitted concentration of half-maximal effect; tags give direction and shape of the fitted curve.

| SMILES | Potency |
| --- | --- |
| O=C(Cc1ccc([N+](=O)[O-])cc1)N1CCN(Cc2ccc3c(c2)OCO3)CC1 | inactive |
| CCC(C(=O)Nc1ccccc1C(=O)OC)n1nc(C)c2c(C)n(-c3ccc(C)cc3)nc2c1=O (stereo unspecified) | active: 7.31 µM |
| CCCCn1c(O)c(C(C)=Nc2ccc(OCC)cc2)c(=O)[nH]c1=O | active: 18.4 µM |
| OC1(c2ccccc2)CCNC2CCCCC21 (stereo unspecified) | active: 18.4 µM |
| COc1cc(C(=O)N2Cc3ccccc3-n3nncc3C2)cc(OC)c1OC | inactive |
| CC(C)c1ccc2c(c1)C(N1CCNCC1)Cc1ccc(F)cc1S2 (stereo unspecified) | inconclusive: 29.1 µM [inhibitor, single point] |
| Cc1cc(C(=O)N2CCC3(CC2)OCCO3)no1 | inactive |
| CCN1C(=O)C(=Cc2ccc(C)s2)C(=O)N(CC)C1=S | inconclusive: 18.4 µM [inhibitor, single point] |
| COC(=O)C1=C(c2ccc(OC(F)(F)F)cc2)C[C@@H]2CC[C@H]1N2C(=O)NC1CC1 | active: 20.6 µM |
| COc1cccc(C(c2nnnn2-c2ccc3c(c2)OCCO3)N2CCC3(CC2)C(=O)NCN3c2ccccc2)c1OC (stereo unspecified) | inconclusive: 29.1 µM [inhibitor, single point] |
| CCCC[C@H](CN(N=O)[C@@H](Cc1ccccc1)CN(C)N=O)N(CCc1ccccc1)N=O | inconclusive: 23.1 µM [inhibitor, single point] |
| Cc1c(C(=O)c2ccccc2)c2ccccc2n1C | inconclusive: 29.1 µM [inhibitor, single point] |
| COc1ccc(CCNCC(O)COc2cccc(C)c2)cc1OC (stereo unspecified) | inconclusive: 29.9 µM [inhibitor, single point] |
| O=C(CCCN1CCC(n2c(=O)[nH]c3ccccc32)CC1)c1ccc(F)cc1 | inconclusive: 12.8 µM [inhibitor, single point] and inconclusive: 29.1 µM [inhibitor, single point] |
| c1ccc2sc(C3(N4CCCCC4)CCCCC3)cc2c1 | active: 26.6 µM |
| CN(C)CCCN=Cc1c(O)n(CCc2ccc(F)cc2)c(=O)[nH]c1=O | inactive |
| COc1cc(OC)c(OC)cc1CNCCc1cccc(F)c1 | inactive |
| COc1ccc(CN2CCN(c3ccccc3)CC2)c(C)c1C | inconclusive: 7.31 µM [inhibitor, partial curve] |
| CC(=O)c1cn(CCCOc2ccccc2)c2ccccc12 | inconclusive: 29.1 µM [inhibitor, single point] |
| O=C(CCN1CCN(c2ccccc2)CC1)c1ccc(Br)cc1 | active: 9.2 µM |
| CCc1ccccc1NC(=O)Nc1cc(C(=O)NCc2ccc(C(C)C)cc2)ccc1N1CCCC1 | inconclusive: 5.8 µM [inhibitor, single point] |
